Results reported in article PMC6458391, “Deep eutectic solvent for an expeditious sono-synthesis of novel series of bis-quinazolin-4-one derivatives as potential anti-cancer agents” (Royal Society Open Science, 2019).

Each compound was assayed on normal breast cell line (MCF-10A). Conditions: read-out: IC50 MCF-10A, MTT.
Protocol: From the obtained results, we can conclude that these derivatives might be further used as promising anti-cancer agents.
The experiment was performed in triplicate.

`Cc1nc2ccc([N+](=O)[O-])cc2c(=O)n1Cc1ccc(Cn2c(C)nc3ccc([N+](=O)[O-])cc3c2=O)cc1` [Compound 4e, 3,3′-(1,4-Phenylenebis(methylene))bis(2-methyl-6-nitroquinazolin-4(3H)-one)] and `Cc1nc2ccc([N+](=O)[O-])cc2c(=O)n1-c1ccc(-n2c(C)nc3ccc([N+](=O)[O-])cc3c2=O)cc1` [Compound 6e, 3,3′-(1,4-Phenylene)bis(2-methyl-6-nitroquinazolin-4(3H)-one)] are within error of each other in IC50: 5.43 ± 2.46 µM for the first, 5.65 ± 2.34 µM for the second.

`Cc1nc2ccc(F)cc2c(=O)n1-c1ccc(S(=O)(=O)c2ccc(-n3c(C)nc4ccc(F)cc4c3=O)cc2)cc1` [Compound 7d, 3,3′-(Sulfonylbis(4,1-phenylene))bis(6-fluoro-2-methylquinazolin-4(3H)-one)] and `Cc1nc2ccc([N+](=O)[O-])cc2c(=O)n1-c1ccc(S(=O)(=O)c2ccc(-n3c(C)nc4ccc([N+](=O)[O-])cc4c3=O)cc2)cc1` [Compound 7e, 3,3′-(Sulfonylbis(4,1-phenylene))bis(2-methyl-6-nitroquinazolin-4(3H)-one)] are within error of each other in IC50: 5.98 ± 1.86 µM for the first, 7.17 ± 0.76 µM for the second.

Compound `CNC(=O)c1cc(Oc2ccc(NC(=O)Nc3ccc(Cl)c(C(F)(F)F)c3)cc2)ccn1` [Sorafenib, sorafenib, reference compound] has an IC50 of 5.98 ± 0.49 µM.
